# Measured values from the supplement of paper PMC8728848.
# This is one part of the list.
# Key:
# Assay in all cases: glycan array binding signal (z-score within array); higher = stronger binding
# Conditions in all cases: glycan notation: IUPAC condensed, linker removed
# [1] = biological target: Man(a1-3)[Man(a1-6)]Man(a1-6)[Man(a1-3)]Man
# Summary of the method: (§1)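 Negative Z-scores can be read as non-binding. The Z-score is calculated within each array and then averaged across arrays of one protein sequence at different concentrations or buffers and across linkers. Arrays, 3228 in all, were curated from the Consortium for Functional Glycomics database and kept only where the protein sequence was available.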
# [2] = biological target: Man(a1-3)[Man(a1-6)]Man(a1-6)[Man(a1-3)]Man(b1-4)GlcNAc(b1-4)GlcNAc
# Summary of the method: as §1
# [3] = biological target: Man(a1-3)[Man(a1-6)]Man(b1-4)GlcNAc(b1-4)GlcNAc
# Summary of the method: as §1
# [4] = biological target: Man(a1-3)[Man(a1-6)]Man(b1-4)GlcNAc(b1-4)[Fuc(a1-6)]GlcNAc
# Summary of the method: as §1
# [5] = biological target: Man(a1-6)Man
# Summary of the method: as §1
# [6] = biological target: Man(b1-4)GlcNAc
# Summary of the method: as §1
# [7] = biological target: MurNAc(b1-4)GlcNAc
# Summary of the method: as §1
# [8] = biological target: Neu5Ac(a2-3)Gal
# Summary of the method: as §1
# [9] = biological target: Neu5Ac(a2-3)Gal(b1-3)GalNAc
# Summary of the method: as §1
# [10] = biological target: Neu5Ac(a2-3)Gal(b1-3)GalNAc(b1-3)Gal(a1-4)Gal(b1-4)Glc
# Summary of the method: as §1
# [11] = biological target: Neu5Ac(a2-3)Gal(b1-3)GalNAc(b1-4)[Neu5Ac(a2-3)]Gal(b1-4)Glc
# Summary of the method: as §1
# [12] = biological target: Neu5Ac(a2-3)Gal(b1-3)GalNAc(b1-4)[Neu5Ac(a2-8)Neu5Ac(a2-3)]Gal(b1-4)Glc
# Summary of the method: as §1
# [13] = biological target: Neu5Ac(a2-3)Gal(b1-3)GalNAc6S
# Summary of the method: as §1
# [14] = biological target: Neu5Ac(a2-3)Gal(b1-3)GlcNAc
# Summary of the method: as §1
# [15] = biological target: Neu5Ac(a2-3)Gal(b1-3)GlcNAc(b1-2)Man
# Summary of the method: as §1
# [16] = biological target: Neu5Ac(a2-3)Gal(b1-3)GlcNAc(b1-2)Man(a1-3)[GlcNAc(b1-4)][Neu5Ac(a2-3)Gal(b1-3)GlcNAc(b1-2)Man(a1-6)]Man(b1-4)GlcNAc(b1-4)GlcNAc
# Summary of the method: as §1
# [17] = biological target: Neu5Ac(a2-3)Gal(b1-3)GlcNAc(b1-2)Man(a1-3)[Neu5Ac(a2-3)Gal(b1-3)GlcNAc(b1-2)Man(a1-6)]Man(b1-4)GlcNAc(b1-4)GlcNAc
# Summary of the method: as §1
# [18] = biological target: Neu5Ac(a2-3)Gal(b1-3)GlcNAc(b1-3)Gal(b1-3)GlcNAc
# Summary of the method: as §1
# [19] = biological target: Neu5Ac(a2-3)Gal(b1-3)GlcNAc(b1-3)Gal(b1-4)GlcNAc
# Summary of the method: as §1
# [20] = biological target: Neu5Ac(a2-3)Gal(b1-3)GlcNAc(b1-3)GalNAc
# Summary of the method: as §1
# [21] = biological target: Neu5Ac(a2-3)Gal(b1-3)GlcNAc(b1-4)Gal(b1-4)Glc
# Summary of the method: as §1
# [22] = biological target: Neu5Ac(a2-3)Gal(b1-3)GlcNAc(b1-6)GalNAc
# Summary of the method: as §1
# [23] = biological target: Neu5Ac(a2-3)Gal(b1-3)GlcNAc6S
# Summary of the method: as §1
# [24] = biological target: Neu5Ac(a2-3)Gal(b1-3)[Fuc(a1-4)]GlcNAc
# Summary of the method: as §1
# [25] = biological target: Neu5Ac(a2-3)Gal(b1-3)[Fuc(a1-4)]GlcNAc(b1-3)Gal(b1-3)[Fuc(a1-4)]GlcNAc
# Summary of the method: as §1
# [26] = biological target: Neu5Ac(a2-3)Gal(b1-3)[Fuc(a1-4)]GlcNAc(b1-3)Gal(b1-4)[Fuc(a1-3)]GlcNAc
# Summary of the method: as §1
# [27] = biological target: Neu5Ac(a2-3)Gal(b1-3)[GlcNAc(b1-6)]GalNAc
# Summary of the method: as §1
# [28] = biological target: Neu5Ac(a2-3)Gal(b1-3)[Neu5Ac(a2-6)]GalNAc
# Summary of the method: as §1
# [29] = biological target: Neu5Ac(a2-3)Gal(b1-3)[Neu5Ac(a2-6)]GlcNAc(b1-3)[Fuc(a1-3)[Gal(b1-4)]GlcNAc(b1-6)]Gal(b1-4)Glc
# Summary of the method: as §1
# [30] = biological target: Neu5Ac(a2-3)Gal(b1-3)]Neu5Ac(a2-3)Gal(b1-4)]GlcNAc
# Summary of the method: as §1
# [31] = biological target: Neu5Ac(a2-3)Gal(b1-4)Glc
# Summary of the method: as §1
# [32] = biological target: Neu5Ac(a2-3)Gal(b1-4)GlcNAc
# Summary of the method: as §1
# [33] = biological target: Neu5Ac(a2-3)Gal(b1-4)GlcNAc(b1-2)Man
# Summary of the method: as §1
# [34] = biological target: Neu5Ac(a2-3)Gal(b1-4)GlcNAc(b1-2)Man(a1-3)[GlcNAc(b1-4)][Neu5Ac(a2-3)Gal(b1-4)GlcNAc(b1-2)Man(a1-6)]Man(b1-4)GlcNAc(b1-4)GlcNAc
# Summary of the method: as §1
# [35] = biological target: Neu5Ac(a2-3)Gal(b1-4)GlcNAc(b1-2)Man(a1-3)[Neu5Ac(a2-3)Gal(b1-4)GlcNAc(b1-2)Man(a1-6)]Man(b1-4)GlcNAc(b1-4)GlcNAc
# Summary of the method: as §1
# [36] = biological target: Neu5Ac(a2-3)Gal(b1-4)GlcNAc(b1-2)Man(a1-3)[Neu5Ac(a2-3)Gal(b1-4)GlcNAc(b1-2)Man(a1-6)]Man(b1-4)GlcNAc(b1-4)[Fuc(a1-6)]GlcNAc
# Summary of the method: as §1
# [37] = biological target: Neu5Ac(a2-3)Gal(b1-4)GlcNAc(b1-2)Man(a1-3)[Neu5Ac(a2-6)Gal(b1-4)GlcNAc(b1-2)Man(a1-6)]Man(b1-4)GlcNAc(b1-4)GlcNAc
# Summary of the method: as §1
# [38] = biological target: Neu5Ac(a2-3)Gal(b1-4)GlcNAc(b1-2)[Neu5Ac(a2-3)Gal(b1-4)GlcNAc(b1-4)]Man(a1-3)[GlcNAc(b1-4)][Neu5Ac(a2-3)Gal(b1-4)GlcNAc(b1-2)[Neu5Ac(a2-3)Gal(b1-4)GlcNAc(b1-6)]Man(a1-6)]Man(b1-4)GlcNAc(b1-4)GlcNAc
# Summary of the method: as §1
binder,measurement,setting,value
Si Bti9 1b-HA (Solanum lycopersicum) (protein) MFESRPRSVLSLGVFVILVYLSSVPLPVNSQCNRGCDLALASFYVWRGSNLTLISEMFSTSIADIVSYNNRDNIPNQDSVIAGTRINIPFRCDCLNDGEVLGHAFPYRVKSGDTYDLVARNYSDLTTAQWMMKFNSYPENNIPNTVNLSVVVNCSCGNSDVSKDFGLFVTYPVRAEDNLTSVASAANVSEDIIRRYNPAAVSILDIGQGIIYIPGRDRNGNFPPLPTSTDGLSGGAKAPLFFNPAFLYKVVELKLAGRSRTSGYPYDVPDYAGYPYDVPDYALEVLFQ,glycan array binding signal (z-score),[1],0.637
same,glycan array binding signal (z-score),[2],-0.004
same,glycan array binding signal (z-score),[3],-0.34
same,glycan array binding signal (z-score),[4],-0.181
same,glycan array binding signal (z-score),[5],7.42
same,glycan array binding signal (z-score),[6],0.25
same,glycan array binding signal (z-score),[7],-0.518
same,glycan array binding signal (z-score),[8],-0.17
same,glycan array binding signal (z-score),[9],-0.304
same,glycan array binding signal (z-score),[10],-0.445
same,glycan array binding signal (z-score),[11],-0.283
same,glycan array binding signal (z-score),[12],-0.478
same,glycan array binding signal (z-score),[13],-0.075
same,glycan array binding signal (z-score),[14],-0.333
same,glycan array binding signal (z-score),[15],-0.142
same,glycan array binding signal (z-score),[16],0.057
same,glycan array binding signal (z-score),[17],0.345
same,glycan array binding signal (z-score),[18],-0.489
same,glycan array binding signal (z-score),[19],-0.297
same,glycan array binding signal (z-score),[20],-0.047
same,glycan array binding signal (z-score),[21],-0.098
same,glycan array binding signal (z-score),[22],-0.247
same,glycan array binding signal (z-score),[23],-0.055
same,glycan array binding signal (z-score),[24],-0.166
same,glycan array binding signal (z-score),[25],-0.407
same,glycan array binding signal (z-score),[26],0.083
same,glycan array binding signal (z-score),[27],-0.327
same,glycan array binding signal (z-score),[28],-0.125
same,glycan array binding signal (z-score),[29],-0.273
same,glycan array binding signal (z-score),[30],0.17
same,glycan array binding signal (z-score),[31],0.009
same,glycan array binding signal (z-score),[32],-0.428
same,glycan array binding signal (z-score),[33],1.37
same,glycan array binding signal (z-score),[34],-0.682
same,glycan array binding signal (z-score),[35],-0.375
same,glycan array binding signal (z-score),[36],-0.088
same,glycan array binding signal (z-score),[37],-0.502
same,glycan array binding signal (z-score),[38],-0.615
